Where a name gives a salt, the structure may show the parent alone. Repeats are few or missing, and single values can be far off.
What was measured:
CHO-K1 [1] = assay: relative survival (nuclei to bead ratio vs DMSO control) (% of vehicle control); higher = more surviving cells
Procedure: (§1)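 Flow-cytometric in vitro micronucleus assay (Litron MicroFlow) in CHO-K1 cells in 96-well plates, 19 concentrations (4.5-200 µM, n=1 per concentration). Without S9, cells were exposed for 24 h and sampled at 48 h. With Aroclor 1254-induced rat liver S9, cells were exposed for 3-4 h and sampled at 27-28 h. Read-outs are %MN and %hypodiploid nuclei relative to nucleated events, and relative survival as the nuclei-to-bead ratio versus the 1% DMSO vehicle control (x100).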

CHO-K1 [2] = assay: hypodiploid nuclei frequency (% of nucleated events); higher = more hypodiploid events (aneugenic)
Procedure: as §1

CHO-K1 [3] = assay: micronucleus frequency (% of nucleated events); higher = more micronuclei (genotoxic)
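Throughout, for hypodiploid nuclei frequency (% of nucleated events): hypodiploid nuclei gated on a flow cytometer with 488 nm excitation after SYTOX Green staining, cultures at 37 °C, positive controls vinblastine without S9 and cyclophosphamide with S9.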
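Throughout, for micronucleus frequency (% of nucleated events): cells lysed with nuclei stained by SYTOX Green, then micronucleus-gated events counted against nucleated events by flow cytometry with 488 nm excitation.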
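Throughout, for relative survival (nuclei to bead ratio vs DMSO control): Lysed-cell nuclei stained with SYTOX Green and counted against counting beads by flow cytometry at 488 nm excitation, with vinblastine (no S9) and cyclophosphamide (plus S9) as positive controls.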

CCC(C)(C)c1ccc(O)cc1 [4-(2-Methylbutan-2-yl)phenol]
Details	hypodiploid nuclei frequency, CHO-K1 [2] [%]	micronucleus frequency, CHO-K1 [3] [%]	relative survival, CHO-K1 [1]
concentration: 4.5 (µM), S9 metabolic activation: with S9, exposure time: 3-4 hours	0.24	0.9	102
concentration: 4.5 (µM), S9 metabolic activation: without S9, exposure time: 24 hours	0.76	1.06	105
concentration: 5.63 (µM), S9 metabolic activation: with S9, exposure time: 3-4 hours	0.14	1.02	108
concentration: 5.63 (µM), S9 metabolic activation: without S9, exposure time: 24 hours	0.56	1.46	87.3
concentration: 7.04 (µM), S9 metabolic activation: with S9, exposure time: 3-4 hours	0.2	1.12	108
concentration: 7.04 (µM), S9 metabolic activation: without S9, exposure time: 24 hours	0.58	1.38	103
concentration: 8.8 (µM), S9 metabolic activation: with S9, exposure time: 3-4 hours	0.1	1.08	107
concentration: 8.8 (µM), S9 metabolic activation: without S9, exposure time: 24 hours	0.44	1.5	98.5
concentration: 11 (µM), S9 metabolic activation: with S9, exposure time: 3-4 hours	0.16	1.02	101
concentration: 11 (µM), S9 metabolic activation: without S9, exposure time: 24 hours	0.5	1.22	118
concentration: 13.7 (µM), S9 metabolic activation: with S9, exposure time: 3-4 hours	0.18	1.02	113
concentration: 13.7 (µM), S9 metabolic activation: without S9, exposure time: 24 hours	0.38	1.28	109
concentration: 17.2 (µM), S9 metabolic activation: with S9, exposure time: 3-4 hours	0.24	0.74	123
concentration: 17.2 (µM), S9 metabolic activation: without S9, exposure time: 24 hours	0.56	1.8	106
concentration: 21.5 (µM), S9 metabolic activation: with S9, exposure time: 3-4 hours	0.18	1.04	110
concentration: 21.5 (µM), S9 metabolic activation: without S9, exposure time: 24 hours	0.64	1.36	105
concentration: 26.8 (µM), S9 metabolic activation: with S9, exposure time: 3-4 hours	0.24	0.92	98.8
concentration: 26.8 (µM), S9 metabolic activation: without S9, exposure time: 24 hours	0.66	0.96	99.1
concentration: 33.6 (µM), S9 metabolic activation: with S9, exposure time: 3-4 hours	0.18	0.94	108
concentration: 33.6 (µM), S9 metabolic activation: without S9, exposure time: 24 hours	0.76	1.2	100
concentration: 41.9 (µM), S9 metabolic activation: with S9, exposure time: 3-4 hours	0.1	1.1	96
concentration: 41.9 (µM), S9 metabolic activation: without S9, exposure time: 24 hours	0.9	0.98	119
concentration: 52.4 (µM), S9 metabolic activation: with S9, exposure time: 3-4 hours	0.26	0.96	93.6
concentration: 52.4 (µM), S9 metabolic activation: without S9, exposure time: 24 hours	0.58	1.02	113
concentration: 65.5 (µM), S9 metabolic activation: with S9, exposure time: 3-4 hours	0.2	1.46	105
concentration: 65.5 (µM), S9 metabolic activation: without S9, exposure time: 24 hours	0.62	1.18	106
concentration: 81.9 (µM), S9 metabolic activation: with S9, exposure time: 3-4 hours	0.22	1.24	81.7
concentration: 81.9 (µM), S9 metabolic activation: without S9, exposure time: 24 hours	0.5	0.98	109
concentration: 102 (µM), S9 metabolic activation: with S9, exposure time: 3-4 hours	0.3	1.54	82.5
concentration: 102 (µM), S9 metabolic activation: without S9, exposure time: 24 hours	0.94	2.12	90.1
concentration: 128 (µM), S9 metabolic activation: with S9, exposure time: 3-4 hours	0.26	1.72	101
concentration: 128 (µM), S9 metabolic activation: without S9, exposure time: 24 hours	0.92	1.54	88.7
concentration: 160 (µM), S9 metabolic activation: with S9, exposure time: 3-4 hours	0.22	1.86	84.1
concentration: 160 (µM), S9 metabolic activation: without S9, exposure time: 24 hours	0.94	1.38	91.1
concentration: 200 (µM), S9 metabolic activation: with S9, exposure time: 3-4 hours	0.14	2.78	74
concentration: 200 (µM), S9 metabolic activation: without S9, exposure time: 24 hours	1.06	1.78	71.8

CCc1ccc(CCOc2ccc(CC3SC(=O)NC3=O)cc2)nc1 (stereo unspecified) [Pioglitazone hydrochloride]
Details	hypodiploid nuclei frequency, CHO-K1 [2] [%]	micronucleus frequency, CHO-K1 [3] [%]	relative survival, CHO-K1 [1]
concentration: 4.5 (µM), S9 metabolic activation: with S9, exposure time: 3-4 hours	0.26	1.12	76.5
concentration: 4.5 (µM), S9 metabolic activation: without S9, exposure time: 24 hours	0.54	2.42	112
concentration: 5.63 (µM), S9 metabolic activation: with S9, exposure time: 3-4 hours	0.32	1.94	90.5
concentration: 5.63 (µM), S9 metabolic activation: without S9, exposure time: 24 hours	0.6	2.16	103
concentration: 7.04 (µM), S9 metabolic activation: with S9, exposure time: 3-4 hours	0.24	1.36	91.9
concentration: 7.04 (µM), S9 metabolic activation: without S9, exposure time: 24 hours	0.66	2.14	107
concentration: 8.8 (µM), S9 metabolic activation: with S9, exposure time: 3-4 hours	0.4	1.46	82.9
concentration: 8.8 (µM), S9 metabolic activation: without S9, exposure time: 24 hours	1.12	2.28	102
concentration: 11 (µM), S9 metabolic activation: with S9, exposure time: 3-4 hours	0.24	1.42	94.5
concentration: 11 (µM), S9 metabolic activation: without S9, exposure time: 24 hours	1.1	2.28	121
concentration: 13.7 (µM), S9 metabolic activation: with S9, exposure time: 3-4 hours	0.24	1.32	106
concentration: 13.7 (µM), S9 metabolic activation: without S9, exposure time: 24 hours	0.76	1.72	104
concentration: 17.2 (µM), S9 metabolic activation: with S9, exposure time: 3-4 hours	0.24	1.7	118
concentration: 17.2 (µM), S9 metabolic activation: without S9, exposure time: 24 hours	1.1	1.58	120
concentration: 21.5 (µM), S9 metabolic activation: with S9, exposure time: 3-4 hours	0.22	0.96	118
concentration: 21.5 (µM), S9 metabolic activation: without S9, exposure time: 24 hours	1.06	1.74	101
concentration: 26.8 (µM), S9 metabolic activation: with S9, exposure time: 3-4 hours	0.16	1.02	84.1
concentration: 26.8 (µM), S9 metabolic activation: without S9, exposure time: 24 hours	0.82	2.26	94.6
concentration: 33.6 (µM), S9 metabolic activation: with S9, exposure time: 3-4 hours	0.28	1.28	83.5
concentration: 33.6 (µM), S9 metabolic activation: without S9, exposure time: 24 hours	1.12	2.7	98.4
concentration: 41.9 (µM), S9 metabolic activation: with S9, exposure time: 3-4 hours	0.34	1.18	87.7
concentration: 41.9 (µM), S9 metabolic activation: without S9, exposure time: 24 hours	0.74	2.48	97.4
concentration: 52.4 (µM), S9 metabolic activation: with S9, exposure time: 3-4 hours	0.28	1.04	83.7
concentration: 52.4 (µM), S9 metabolic activation: without S9, exposure time: 24 hours	1.24	2.98	87.8
concentration: 65.5 (µM), S9 metabolic activation: with S9, exposure time: 3-4 hours	0.22	1.28	85
concentration: 65.5 (µM), S9 metabolic activation: without S9, exposure time: 24 hours	1.32	2.66	91.1
concentration: 81.9 (µM), S9 metabolic activation: with S9, exposure time: 3-4 hours	0.24	1.96	102
concentration: 81.9 (µM), S9 metabolic activation: without S9, exposure time: 24 hours	1.28	2.6	97.4
concentration: 102 (µM), S9 metabolic activation: with S9, exposure time: 3-4 hours	0.24	1.34	92.6
concentration: 102 (µM), S9 metabolic activation: without S9, exposure time: 24 hours	1.3	3.04	82.3
concentration: 128 (µM), S9 metabolic activation: with S9, exposure time: 3-4 hours	0.24	1.56	97
concentration: 128 (µM), S9 metabolic activation: without S9, exposure time: 24 hours	1.6	2.68	72.8
concentration: 160 (µM), S9 metabolic activation: with S9, exposure time: 3-4 hours	0.34	1.56	102
concentration: 160 (µM), S9 metabolic activation: without S9, exposure time: 24 hours	1.16	3.24	68
concentration: 200 (µM), S9 metabolic activation: with S9, exposure time: 3-4 hours	0.18	1.42	106
concentration: 200 (µM), S9 metabolic activation: without S9, exposure time: 24 hours	1.72	3.7	59.2
